# PubChem BioAssay AID1347073 (National Center for Advancing Translational Sciences (NCATS), 2019)
# Among all 45,000 compounds or so, about 200 (0.44%) were called active. Another 7% or so got no clear call; they are omitted. Calls come from the whole dose curve; as a rule, active = well fitted activation curve with a large enough effect; inconclusive = small, poorly fitted or top-dose-only effect; inactive = no such curve, though single readings can be large or run the other way. Some of the results follow.
# Assay: qHTS of TDP-43 Inhibitors: NCGC Sytravon Library Screen; note: nearly all actives have a fitted effect of over 55% in size; for growth rescue (activation): 0% is about no effect
# Conditions: yeast TDP-43 toxicity rescue, BacTiter-Glo growth, 24 h; series mostly up to 46.1 µM; growth rescue (activation): at the top concentration
# How it was run: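 TDP-43-expressing yeast, pregrown in raffinose, seeded at OD600 0.02 in galactose medium with compound for 24 hr at 30 deg C. Growth read by BacTiter-Glo luminescence, so rescue of toxicity appears as activation.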
# Potency is the fitted concentration of half-maximal effect.
SMILES,growth rescue (activation),Potency
Cc1ccccc1NC(=S)N1CCN(C(=O)c2ccco2)CC1,inactive: 0.678%,–
O=S(=O)(Nc1ccccc1)c1cccc2nsnc12,inactive: 9.36%,–
COc1ccc(Br)cc1CN1C(=O)NC2(CCCCCC2)C1=O,inactive: -2.81%,–
CS(=O)(=O)c1ccccc1C(=O)Nc1ccc(S(=O)(=O)N2CCCC2)cc1,inactive: 10%,–
CCOC(=O)CNC(=O)C1CCN(S(=O)(=O)c2ccc(-c3nn[nH]n3)cc2)CC1,inactive: -0.977%,–
OC[C@@H]1CN(Cc2ccccc2)C[C@H](n2cnc3c(NCc4ccco4)ncnc32)O1,inactive: 5.64%,–
COc1ccc(-c2cnnc(N/N=C/c3ccc(O)c(O)c3)n2)cc1,inactive: 0.523%,–
COc1cc(CC(=O)OCC(=O)c2ccc(F)cc2)cc(OC)c1OC,inactive: 3.95%,–
O=C(CCCSc1nc2ccccc2s1)NCc1ccc2c(c1)OCO2,–,active: 12.6 µM
C/C(=N/NC(=O)c1cccnc1)C1=C(O)CC(C)(C)CC1=O,inactive: -10.8%,–
CN1CCN(C(=O)c2cccc(NS(=O)(=O)c3ccc(Br)cc3)c2)CC1,inactive: 17.4%,–
O=C1NC(c2ccc(-c3ccccc3[N+](=O)[O-])o2)C(C(=O)c2ccc(Cl)cc2)C(O)(C(F)(F)F)N1 (centres undefined),inactive: 7.15%,–
COc1ccc(C(=O)NCC(=O)N2CCN(C(=O)c3ccco3)CC2)cc1,inactive: 0.0093%,–
COc1ccc(C2C(C(=O)N3CCN(c4ccccn4)CC3)CCC(=O)N2c2cc(OC)c(OC)c(OC)c2)cc1 (centres undefined),inactive: 5.95%,–
CCOc1ccc(NC(=O)CC2C(=O)N(c3ccc(OCC)cc3)C(=S)N2C2CC2)cc1 (centres undefined),inactive: 15.8%,–
CCN(CC)Cc1c(C(=O)N/N=C/c2cccnc2)nnn1-c1nonc1N,inactive: -3.12%,–
CC(C)CCNC(=O)CN1C(=O)c2cccnc2Oc2ccccc21,inactive: 3.66%,–
COCCn1c(SCC(=O)NCc2ccc3c(c2)OCO3)nc2ccccc2c1=O,inactive: -1.84%,–
COc1ccc(CNC(=O)CCN2C(=O)c3ccccc3C2=O)cc1OC,inactive: 11.3%,–
CCn1nc(C)c(CNC(=O)CCc2nnc(-c3ccc(C(C)=O)s3)o2)c1C,inactive: 4.9%,–
Cc1cccc2sc(NC(=O)CN3C(=O)c4ccccc4C3=O)nc12,inactive: -10.6%,–
O=C(NCc1cccc(F)c1)Nc1nnc([C@@H]2C[C@H](O)[C@@H](CO)O2)s1,inactive: 4.19%,–
COc1ccc(/C=N/N(C)C2=NS(=O)(=O)c3ccccc32)cc1OC,inactive: 6.55%,–
Cc1ccc(F)cc1NC(=O)CSc1n[nH]c(N)n1,inactive: 22.9%,–
COc1cccc(CNC(=O)c2ccc3c(c2)N(Cc2ccc(C(F)(F)F)cc2)C(=O)c2ccccc2S3)c1OC,inactive: 3.5%,–
CCOC(=O)C1(CCCc2ccccc2)CCN(C(=O)C2CCCN(C(N)=O)C2)CC1 (centres undefined),inactive: 11.1%,–
CCC(=O)N(C)CCc1cc2c(c(OC)c1/C=N/NC(=O)c1ccccc1O)OCO2,inactive: 18.7%,–

SMILES,growth rescue (activation),Potency
CCN(C(=O)CSc1nnc(-c2ccco2)n1Cc1ccccc1)C1CCS(=O)(=O)C1 (centres undefined),inactive: -5.79%,–
CCSc1c(C(=O)NC)ccc2c1C(=O)c1ccccc1C2=O,inactive: -20.7%,–
Oc1ccc(N2Cc3ccccc3C2)cc1,inactive: -13.3%,–
CSCCC(NC(=O)c1ccccc1)C(=O)NCCc1ccccc1 (centres undefined),inactive: 16.3%,–
CN1CCN(C(=O)/C=C/c2ccc3c(c2)OCO3)CC1,inactive: 15%,–
Cc1sc2ncn(CC(=O)NCCCOC(C)C)c(=O)c2c1S(=O)(=O)N1CCN(c2ncccn2)CC1,inactive: -2.02%,–
Cc1c(C(=O)NCc2nnc(-c3ccccc3)o2)oc2c(F)cccc12,inactive: 8.11%,–
CCN(CC)C(=O)Oc1ccc(Br)c2ccccc12,inactive: 26.7%,–
Cc1cc(C)c(OCC(=O)NCC2COc3ccccc3O2)c(C)c1 (centres undefined),inactive: 9.68%,–
COc1ccc(NC(=O)c2cc(C3CCCCN3S(=O)(=O)c3cccs3)on2)c(C)c1 (centres undefined),inactive: 20.3%,–
COc1ccc(S(=O)(=O)N(C)CC(=O)NCCCN2CCOCC2)cc1C,inactive: 4.14%,–
Nc1nc(C(F)(F)F)cc(=O)n1N,inactive: 0.235%,–
CSc1ccccc1NC(=O)CNCCCN1CCOCC1,inactive: -31%,–
CC(C)(C)C(=O)CSc1ncnc2sc3c(c12)CCC3,inactive: 25.4%,–
CC1(C)CC(=O)C(C(C2=C(O)CC(C)(C)CC2=O)c2ccc(O)c([N+](=O)[O-])c2)=C(O)C1,inactive: -5.28%,–
O=C(CN1CCN(C(=O)C2CC2)CC1)Nc1ccc(Cl)cc1F,inactive: 9.12%,–
Cc1nnc(SCSc2nnc(C)s2)s1,inactive: 5.59%,–
Cc1cc(C)nc(Nc2n[nH]c(C)n2)n1,inactive: -4.22%,–
CCOC(=O)c1ccc(Oc2coc3cc(O)ccc3c2=O)cc1,inactive: -0.294%,–
O=C(CNS(=O)(=O)c1ccccc1)OCc1cccc([N+](=O)[O-])c1,inactive: 10.5%,–
CCC(C)C(NC(N)=O)C(=O)Nc1ccc(C(=O)OC)cc1 (centres undefined),inactive: 9.13%,–
CS(=O)(=O)N1CCc2cc(C(=O)O)ccc21,inactive: -17.6%,–
CCOc1ccc(OCC)c(N=c2oc3c(C)ncc(CO)c3cc2C(N)=O)c1,inactive: 15.2%,–
Cc1ccc(-c2nnc(Nc3ccc4c(c3)OCO4)c3ccccc23)cc1S(=O)(=O)NCCO,inactive: -20.9%,–
O=C(c1cccs1)c1cn(CC(=O)N2CCc3ccccc3C2)c2ccccc12,inactive: -26.7%,–
CCOC(=O)c1cc(-c2ccc(N3CCOCC3)cc2)nn1-c1ccc(F)cc1F,inactive: 14.9%,–
O=C(CN1CCN(Cc2ccccc2)CC1)N/N=C/C=C/c1ccco1,inactive: -0.741%,–
